Experiment in all cases: Agar dilution on enriched GC agar; resistance determinants by microarray.
Background: In agar dilution, organisms are placed on agar that contains the substance at set levels.

Compound in experiment [1]: CC1(C)S[C@@H]2[C@H](NC(=O)Cc3ccccc3)C(=O)N2[C@H]1C(=O)O [benzylpenicillin]
Compound in experiment [2]: CC[C@H]1OC(=O)[C@H](C)[C@@H](O[C@H]2C[C@@](C)(OC)[C@@H](O)[C@H](C)O2)[C@H](C)[C@@H](O[C@@H]2O[C@H](C)C[C@H](N(C)C)[C@H]2O)[C@](C)(O)C[C@@H](C)CN(C)[C@H](C)[C@@H](O)[C@]1(C)O [azithromycin]
Compound in experiment [3]: CN(C)[C@@H]1C(O)=C(C(N)=O)C(=O)[C@@]2(O)C(O)=C3C(=O)c4c(O)cccc4[C@@](C)(O)[C@H]3C[C@@H]12 [tetracycline]
Compound in experiment [4]: CN[C@@H]1[C@H](O)[C@H](NC)[C@H]2O[C@@]3(O)C(=O)C[C@@H](C)O[C@H]3O[C@@H]2[C@H]1O [spectinomycin]
Compound in experiment [5]: CO/N=C(\C(=O)N[C@@H]1C(=O)N2C(C(=O)O)=C(CSc3nc(=O)c(O)nn3C)CS[C@H]12)c1csc(N)n1 [ceftriaxone]

MIC of clinical N. gonorrhoeae isolates (2015-2017) by agar dilution on GC agar with 1% IsoVitaleX (ranges not stated); higher = less susceptible. No active / inactive call per row; the paper counts benzylpenicillin above 1 and ceftriaxone above 0.125 mg/L as resistant (EUCAST). The method is stated for benzylpenicillin and ceftriaxone and assumed for the other drugs. '<=' is inferred from pile-ups at the end values. Isolates are numbered anew. A value given as a limit tells only on which side of the number the result lay.

Usually MIC stands for the smallest concentration in the dilution series that meets the test's criterion for growth inhibition.

“Neisseria gonorrhoeae isolate 301 (blaTEM plasmid: no, gyrA: wild type, mtrR promoter: wild type, parC: wild type, penA: wild type, ponA: wild type, porB: wild type, rpsJ: wild type, tetM plasmid: no)”: the minimal inhibitory concentration (MIC) in experiment [1] is not above 0.015 µg/mL; in experiment [2] it was 0.12 µg/mL; in experiment [3], 0.25 µg/mL; in experiment [4], 16 µg/mL; in experiment [5], not above 0.002 µg/mL.

“Neisseria gonorrhoeae isolate 468 (blaTEM plasmid: no, gyrA: Phe91, Asn95, mtrR promoter: -35delA, parC: Ser87, Gly91, penA: ins345Asp, ponA: wild type, porB: Asn120, Asp 121, rpsJ: Met57, tetM plasmid: no)”: the MIC was 1 µg/mL in experiment [1]; 0.25 µg/mL in experiment [2]; 2 µg/mL in experiment [3]; 32 µg/mL in experiment [4]; 0.032 µg/mL in experiment [5].

On to “Neisseria gonorrhoeae isolate 364 (blaTEM plasmid: no, gyrA: wild type, mtrR promoter: wild type, parC: Arg87, Glu91, penA: ins345Asp, ponA: wild type, porB: wild type, rpsJ: wild type, tetM plasmid: no)”, for which the MIC in experiment [1] was determined as 0.5 µg/mL; in experiment [2], 0.015 µg/mL; in experiment [3], 0.5 µg/mL; in experiment [4] it was 32 µg/mL; in experiment [5], 0.004 µg/mL.

Take “Neisseria gonorrhoeae isolate 329 (blaTEM plasmid: no, gyrA: wild type, mtrR promoter: wild type, parC: wild type, penA: wild type, ponA: wild type, porB: wild type, rpsJ: wild type, tetM plasmid: no)”: the MIC in experiment [1] is not above 0.015 µg/mL; in experiment [2], 0.12 µg/mL; in experiment [3], 0.25 µg/mL; in experiment [4], 8 µg/mL; in experiment [5], not above 0.002 µg/mL.

Take “Neisseria gonorrhoeae isolate 302 (blaTEM plasmid: no, gyrA: Phe91, Asn95, mtrR promoter: wild type, parC: wild type, penA: ins345Asp, ponA: Pro421, porB: Asn120, Asp121, rpsJ: Met57, tetM plasmid: no)”: the MIC in experiment [1] was found to be 0.5 µg/mL; in experiment [2], 0.5 µg/mL; in experiment [3], 4 µg/mL; in experiment [4], 16 µg/mL; in experiment [5], 0.008 µg/mL.

“Neisseria gonorrhoeae isolate 483 (blaTEM plasmid: no, gyrA: Thr91, Gly95, mtrR promoter: wild type, parC: wild type, penA: wild type, ponA: wild type, porB: wild type, rpsJ: wild type, tetM plasmid: yes)”: the MIC worked out at 0.06 µg/mL in experiment [1]; 0.12 µg/mL in experiment [2]; 16 µg/mL in experiment [3]; 4 µg/mL in experiment [4]; 0.004 µg/mL in experiment [5].

“Neisseria gonorrhoeae isolate 410 (blaTEM plasmid: no, gyrA: Thr91, Gly95, mtrR promoter: wild type, parC: wild type, penA: wild type, ponA: wild type, porB: wild type, rpsJ: wild type, tetM plasmid: no)”: the MIC in experiment [1] is 0.03 µg/mL; in experiment [2] it was 0.06 µg/mL; in experiment [3], 1 µg/mL; in experiment [4], 32 µg/mL; in experiment [5] it was not above 0.002 µg/mL.

Regarding “Neisseria gonorrhoeae isolate 79 (blaTEM plasmid: no, gyrA: wild type, mtrR promoter: -35delA, parC: wild type, penA: ins345Asp, ponA: wild type, porB: wild type, rpsJ: wild type, tetM plasmid: no)”, the MIC in experiment [1] is not above 0.015 µg/mL; in experiment [2], 0.12 µg/mL; in experiment [3], 0.25 µg/mL; in experiment [4], 32 µg/mL; in experiment [5] it was not above 0.002 µg/mL.

On to “Neisseria gonorrhoeae isolate 116 (blaTEM plasmid: no, gyrA: wild type, mtrR promoter: wild type, parC: wild type, penA: ins345Asp, ponA: wild type, porB: wild type, rpsJ: wild type, tetM plasmid: no)”, for which the MIC in experiment [1] is 0.03 µg/mL; in experiment [2], 0.06 µg/mL; in experiment [3] it was 0.5 µg/mL; in experiment [4], 16 µg/mL; in experiment [5], not above 0.002 µg/mL.

Consider “Neisseria gonorrhoeae isolate 326 (blaTEM plasmid: no, gyrA: wild type, mtrR promoter: wild type, parC: wild type, penA: wild type, ponA: wild type, porB: wild type, rpsJ: wild type, tetM plasmid: no)”, for which the MIC in experiment [1] was found to be 0.03 µg/mL; in experiment [2] it was 0.12 µg/mL; in experiment [3] it was 0.5 µg/mL; in experiment [4], 64 µg/mL; in experiment [5], 0.03 µg/mL.

Regarding “Neisseria gonorrhoeae isolate 306 (blaTEM plasmid: no, gyrA: wild type, mtrR promoter: wild type, parC: wild type, penA: ins345Asp, ponA: wild type, porB: wild type, rpsJ: wild type, tetM plasmid: no)”, the MIC was 0.06 µg/mL in experiment [1]; 0.03 µg/mL in experiment [2]; 0.25 µg/mL in experiment [3]; 32 µg/mL in experiment [4]; not above 0.002 µg/mL in experiment [5].

On to “Neisseria gonorrhoeae isolate 105 (blaTEM plasmid: no, gyrA: Phe91, Gly95, mtrR promoter: -35delA, parC: Arg87, Glu91, penA: ins345Asp, ponA: Pro421, porB: wild type, rpsJ: Met57, tetM plasmid: no)”, for which the MIC was 0.5 µg/mL in experiment [1]; 0.25 µg/mL in experiment [2]; 0.03 µg/mL in experiment [3]; 16 µg/mL in experiment [4]; 0.008 µg/mL in experiment [5].

In the case of “Neisseria gonorrhoeae isolate 109 (blaTEM plasmid: no, gyrA: Phe91, Gly95, mtrR promoter: -35delA, parC: Ser87, Gly91, penA: ins345Asp, ponA: Pro421, porB: Asn120, Asp121, rpsJ: Met57, tetM plasmid: no)”, the MIC in experiment [1] is 0.25 µg/mL; in experiment [2], 0.25 µg/mL; in experiment [3], 4 µg/mL; in experiment [4] it was 32 µg/mL; in experiment [5], 0.008 µg/mL.

In the case of “Neisseria gonorrhoeae isolate 401 (blaTEM plasmid: no, gyrA: Phe91, Asn95, mtrR promoter: -35delA, parC: Ser87, Gly91, penA: ins345Asp, ponA: Pro421, porB: wild type, rpsJ: Met57, tetM plasmid: no)”, the MIC in experiment [1] is 0.25 µg/mL; in experiment [2] it was 0.5 µg/mL; in experiment [3], 2 µg/mL; in experiment [4], 32 µg/mL; in experiment [5], not above 0.002 µg/mL.

Take “Neisseria gonorrhoeae isolate 309 (blaTEM plasmid: no, gyrA: wild type, mtrR promoter: wild type, parC: wild type, penA: ins345Asp, ponA: wild type, porB: wild type, rpsJ: wild type, tetM plasmid: no)”: the MIC in experiment [1] was 0.06 µg/mL; in experiment [2] it was 0.06 µg/mL; in experiment [3] it was 0.12 µg/mL; in experiment [4] it was 16 µg/mL; in experiment [5] it was not above 0.002 µg/mL.

In the case of “Neisseria gonorrhoeae isolate 485 (blaTEM plasmid: yes, gyrA: Phe91, Asp95, mtrR promoter: wild type, parC: wild type, penA: ins345Asp, ponA: wild type, porB: wild type, rpsJ: Met57, tetM plasmid: yes)”, the MIC in experiment [1] was not below 32 µg/mL; in experiment [2] it was 0.06 µg/mL; in experiment [3], 16 µg/mL; in experiment [4] it was 8 µg/mL; in experiment [5], not above 0.002 µg/mL.

In the case of “Neisseria gonorrhoeae isolate 81 (blaTEM plasmid: no, gyrA: Phe91, Gly95, mtrR promoter: wild type, parC: Arg87, Glu91, penA: ins345Asp, ponA: Pro421, porB: wild type, rpsJ: Met57, tetM plasmid: no)”, the MIC was found to be 0.12 µg/mL in experiment [1]; 0.004 µg/mL in experiment [2]; 0.5 µg/mL in experiment [3]; 32 µg/mL in experiment [4]; 0.06 µg/mL in experiment [5].

For “Neisseria gonorrhoeae isolate 319 (blaTEM plasmid: no, gyrA: wild type, mtrR promoter: wild type, parC: wild type, penA: wild type, ponA: wild type, porB: wild type, rpsJ: wild type, tetM plasmid: no)”, the MIC in experiment [1] turned out to be 0.5 µg/mL; in experiment [2], 0.5 µg/mL; in experiment [3] it was 2 µg/mL; in experiment [4] it was 16 µg/mL; in experiment [5], 0.008 µg/mL.

As to “Neisseria gonorrhoeae isolate 183 (blaTEM plasmid: no, gyrA: Phe91, Gly95, mtrR promoter: -35delA, parC: Arg87, Glu91, penA: ins345Asp, ponA: Pro421, porB: wild type, rpsJ: Met57, tetM plasmid: no)”, the MIC in experiment [1] was determined as 1 µg/mL; in experiment [2] it was 0.03 µg/mL; in experiment [3], 1 µg/mL; in experiment [4], 32 µg/mL; in experiment [5] it was 0.008 µg/mL.

Regarding “Neisseria gonorrhoeae isolate 103 (blaTEM plasmid: no, gyrA: wild type, mtrR promoter: wild type, parC: wild type, penA: wild type, ponA: wild type, porB: wild type, rpsJ: wild type, tetM plasmid: no)”, the MIC in experiment [1] is 0.12 µg/mL; in experiment [2] it was 0.004 µg/mL; in experiment [3] it was 0.25 µg/mL; in experiment [4], 32 µg/mL; in experiment [5] it was not above 0.002 µg/mL.

On to “Neisseria gonorrhoeae isolate 462 (blaTEM plasmid: no, gyrA: Phe91, Asn95, mtrR promoter: -35delA, parC: wild type, penA: ins345Asp, ponA: Pro421, porB: Asn120, Asp121, rpsJ: Met57, tetM plasmid: no)”, for which the MIC in experiment [1] came to 0.5 µg/mL; in experiment [2] it was 0.25 µg/mL; in experiment [3], 1 µg/mL; in experiment [4], 16 µg/mL; in experiment [5], 0.015 µg/mL.

Consider “Neisseria gonorrhoeae isolate 100 (blaTEM plasmid: no, gyrA: Thr91, Gly95, mtrR promoter: wild type, parC: wild type, penA: wild type, ponA: wild type, porB: Gly120, Ser121, rpsJ: Met57, tetM plasmid: no)”, for which the MIC in experiment [1] is 0.5 µg/mL; in experiment [2], 0.06 µg/mL; in experiment [3], 0.5 µg/mL; in experiment [4], 16 µg/mL; in experiment [5] it was not above 0.002 µg/mL.

Take “Neisseria gonorrhoeae isolate 392 (blaTEM plasmid: no, gyrA: Phe91, Gly95, mtrR promoter: wild type, parC: Arg87, Glu91, penA: ins345Asp, ponA: Pro421, porB: wild type, rpsJ: Met57, tetM plasmid: no)”: the MIC was 0.25 µg/mL in experiment [1]; 0.015 µg/mL in experiment [2]; 2 µg/mL in experiment [3]; 32 µg/mL in experiment [4]; 0.008 µg/mL in experiment [5].

On to “Neisseria gonorrhoeae isolate 494 (blaTEM plasmid: no, gyrA: Phe91, Asn 95, mtrR promoter: wild type, parC: Ser87, Gly 91, penA: ins345Asp, ponA: Pro421, porB: wild type, rpsJ: Met57, tetM plasmid: no)”, for which the MIC was found to be 0.25 µg/mL in experiment [1]; 0.25 µg/mL in experiment [2]; 1 µg/mL in experiment [3]; 32 µg/mL in experiment [4]; 0.008 µg/mL in experiment [5].

Turning to “Neisseria gonorrhoeae isolate 389 (blaTEM plasmid: no, gyrA: wild type, mtrR promoter: wild type, parC: wild type, penA: ins345Asp, ponA: Pro421, porB: wild type, rpsJ: wild type, tetM plasmid: no)”, the MIC in experiment [1] was 0.06 µg/mL; in experiment [2], 0.12 µg/mL; in experiment [3] it was 0.25 µg/mL; in experiment [4], 8 µg/mL; in experiment [5], not above 0.002 µg/mL.

The record behind these values is the supplement of paper PMC6657886.
